# According to PubChem BioAssay AID485294 (National Center for Advancing Translational Sciences (NCATS), 2010):
# The campaign covered roughly 370,000 compounds. About 150 (0.041%) were called active. This list was built around the results that the source calls inconclusive (neither active nor inactive); the mix of calls is not that of the screen. Calls follow the shape of the dose curve; as a rule, active = well fitted inhibition curve with a large enough effect; inconclusive = small, poorly fitted or top-dose-only effect; inactive = flat fitted curve, though single readings scatter. Potencies of inconclusive entries are left out as doubtful fits.
# Molecular target: Beta-lactamase (Escherichia coli (strain K12)) (UniProt P00811)
# Sequence of UniProt P00811 (P00811 whole entry, looked up): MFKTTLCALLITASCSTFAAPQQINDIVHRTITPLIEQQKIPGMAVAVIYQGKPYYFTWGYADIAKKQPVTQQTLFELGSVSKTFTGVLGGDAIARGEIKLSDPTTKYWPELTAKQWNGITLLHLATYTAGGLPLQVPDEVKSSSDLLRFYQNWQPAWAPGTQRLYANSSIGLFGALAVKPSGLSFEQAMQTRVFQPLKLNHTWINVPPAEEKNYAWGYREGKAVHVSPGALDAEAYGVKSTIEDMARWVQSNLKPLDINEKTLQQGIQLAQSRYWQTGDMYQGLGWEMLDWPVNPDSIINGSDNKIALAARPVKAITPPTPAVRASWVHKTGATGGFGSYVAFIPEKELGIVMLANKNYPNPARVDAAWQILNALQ
# Assay: qHTS Inhibitors of AmpC Beta-Lactamase (assay with detergent); also: nearly all actives have a fitted effect of over 25% in size;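 as to activity change, negative = inhibition: 0% = no-compound wells and -100% = no-enzyme wells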
# Conditions: AmpC hydrolysis of nitrocefin, absorbance 480 nm, 0.01% Triton; activity change, negative = inhibition: at 114 µM (top of the series)
# Procedure, shortened: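 AmpC (5.3 nM in the dispensed reagent) in 20 mM phosphate pH 7.0 with 0.01% (detergent screen) or 0.0001% Triton X-100 was preincubated with compounds for 15 min at room temperature. Nitrocefin was then added from an 800 uM solution, and hydrolysis was followed at 480 nm.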
# Potency is read from the fitted curve at half-maximal effect; tags tell the direction and shape of the fitted curve.
SMILES,Potency,"activity change, negative = inhibition"
CCn1c(SCC(=O)Nc2oc(-c3ccccc3)c(-c3ccccc3)c2C#N)nnc1-c1cc(OC)cc(OC)c1,"inconclusive [inhibitor, partial curve, poor fit]",–
COc1ccc(C)cc1C(=O)CCC(=O)Nc1ccccc1N1CCOCC1,"inconclusive [inhibitor, full curve, poor fit]",–
CCOc1ccc(Nc2nc(Cl)nc(N3CCN(c4ccc(OC)cc4)CC3)n2)cc1,"inconclusive [inhibitor, partial curve]",–
N#Cc1c(N2CCCC2)nc(N)c2c(N)nc(N3CCCC3)cc12,"inconclusive [inhibitor, full curve, poor fit]",–
COCC(C)NC(=O)c1ccc(N(C)C)cc1 (stereo unspecified),"inconclusive [inhibitor, full curve, poor fit]",–
Cc1ccc(S(=O)(=O)C(CNC(=O)c2c(F)cccc2F)c2ccco2)cc1 (stereo unspecified),–,inactive: 10.6%
O=C(COc1ccc2c3c(c(=O)oc2c1)CCC3)NC1CCN(Cc2ccccc2)CC1,"inconclusive [inhibitor, full curve, poor fit]",–
Cc1cccc(OC(=O)NCCOC(=O)N(O)c2ccc(Cl)cc2)c1,"inconclusive [inhibitor, single point]",–
CCOC(=O)Cc1csc(/N=C/c2c(O)n(-c3ccccc3C(F)(F)F)c(=O)c3ccccc23)n1,"inconclusive [inhibitor, full curve, poor fit]",–
Cc1ccc(S(=O)(=O)N(C)c2ccc(C(=O)N(CC(C)C)C3CCS(=O)(=O)C3)cc2)cc1 (stereo unspecified),"inconclusive [inhibitor, single point]",–
COc1ccc(N2CC(NS(=O)(=O)c3ccc4ccccc4c3)CC2=O)cc1 (stereo unspecified),"inconclusive [inhibitor, full curve, poor fit]",–
COc1ccc(N(C)S(=O)(=O)c2c(C)[nH]c(=O)[nH]c2=O)c(OC)c1,–,inactive: -8.09%
COc1ccccc1Cc1nc(-c2ccc(Br)o2)no1,"inconclusive [inhibitor, full curve, poor fit]",–
O=C1C=C(NCc2ccc(Cl)c(Cl)c2)C2(CCCCC2)O1,"inconclusive [inhibitor, full curve, poor fit]",–
Cn1nc(C(=O)N2CCN(c3ccc([N+](=O)[O-])cc3)CC2)c2c1-c1ccccc1S(=O)(=O)C2,"inconclusive [inhibitor, full curve, poor fit]",–
CCCCc1ccc(NC(=O)COc2ccc(C(=O)Nc3ccccc3C)cc2)cc1,"inconclusive [inhibitor, full curve, poor fit]",–
